Reference: article PMC12820563
Some of the results follow. The list includes weakly bound sequences.

Target: T1, MBP-FoxP3dN (UniProt Q99JB6)
T1 sequence: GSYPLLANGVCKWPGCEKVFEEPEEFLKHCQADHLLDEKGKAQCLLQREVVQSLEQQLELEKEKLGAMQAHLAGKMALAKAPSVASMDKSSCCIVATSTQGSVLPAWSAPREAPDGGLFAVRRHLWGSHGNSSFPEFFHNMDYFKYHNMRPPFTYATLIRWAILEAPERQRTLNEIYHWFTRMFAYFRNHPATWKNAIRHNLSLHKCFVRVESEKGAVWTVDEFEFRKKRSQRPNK
Assay: PD-seq (MBP pull-down with sequencing)
Details: 20 mM Tris-HCl pH 7.5, 100 mM NaCl, 1.5 mM MgCl2, 0.4 uM protein, 0.1 uM dsDNA library, 30 min, room temperature, amylose pull-down; high values mean tight binding; double strand, one strand shown

Sequence	binding signal (RPM ratio (pull-down/input))
GATGATTGTTCTCCCAGCTGATGAATTGCCCCGCTCGAGTAAACAAATTTTCCTAATCTTTCTGTTCAAGCGCCATCTAC	0.372
GATGATTGTTCTCCCAGCTGATGAATTATACTGGTCGAGTAAACAAATTTTCCTAATCTTTCTGTTCAAGCGCCATCTAC	0.433
GATGATTGTTCTCCCAGCTGATGAATTGGGTGTCTCGAGTAAACAAATTTTCCTAATCTTTCTGTTCAAGCGCCATCTAC	1.29
GATGATTGTTCTCCCAGCTGATGAATTGGTCTGCTCGAGTAAACAAATTTTCCTAATCTTTCTGTTCAAGCGCCATCTAC	0.347
GATGATTGTTCTCCCAGCTGATGAATTGCGGTGCTCGAGTAAACAAATTTTCCTAATCTTTCTGTTCAAGCGCCATCTAC	0.874
GATGATTGTTCTCCCAGCTGATGAATTGCAGGTCTCGAGTAAACAAATTTTCCTAATCTTTCTGTTCAAGCGCCATCTAC	0.813
GATGATTGTTCTCCCAGCTGATGAATTATCCCCCTCGAGTAAACAAATTTTCCTAATCTTTCTGTTCAAGCGCCATCTAC	0.246
GATGATTGTTCTCCCAGCTGATGAATTATAACGCTCGAGTAAACAAATTTTCCTAATCTTTCTGTTCAAGCGCCATCTAC	0.497
GATGATTGTTCTCCCAGCTGATGAATTGTCGTACTCGAGTAAACAAATTTTCCTAATCTTTCTGTTCAAGCGCCATCTAC	0.671
GATGATTGTTCTCCCAGCTGATGAATTCGTCTCATCGAGTAAACAAATTTTCCTAATCTTTCTGTTCAAGCGCCATCTAC	0.473
GATGATTGTTCTCCCAGCTGATGAATTGGCGTTATCGAGTAAACAAATTTTCCTAATCTTTCTGTTCAAGCGCCATCTAC	1.24
GATGATTGTTCTCCCAGCTGATGAATTTGGTTGGTCGAGTAAACAAATTTTCCTAATCTTTCTGTTCAAGCGCCATCTAC	2.96
GATGATTGTTCTCCCAGCTGATGAATTTCAGGGGTCGAGTAAACAAATTTTCCTAATCTTTCTGTTCAAGCGCCATCTAC	0.329
GATGATTGTTCTCCCAGCTGATGAATTCACCTGGTCGAGTAAACAAATTTTCCTAATCTTTCTGTTCAAGCGCCATCTAC	0.245
GATGATTGTTCTCCCAGCTGATGAATTAGCGCGGTCGAGTAAACAAATTTTCCTAATCTTTCTGTTCAAGCGCCATCTAC	0.394
GATGATTGTTCTCCCAGCTGATGAATTCACGTATTCGAGTAAACAAATTTTCCTAATCTTTCTGTTCAAGCGCCATCTAC	0.972
GATGATTGTTCTCCCAGCTGATGAATTTGTTAACTCGAGTAAACAAATTTTCCTAATCTTTCTGTTCAAGCGCCATCTAC	3.94
GATGATTGTTCTCCCAGCTGATGAATTCTGGCACTCGAGTAAACAAATTTTCCTAATCTTTCTGTTCAAGCGCCATCTAC	0.445
GATGATTGTTCTCCCAGCTGATGAATTAATGTATTCGAGTAAACAAATTTTCCTAATCTTTCTGTTCAAGCGCCATCTAC	2.84
GATGATTGTTCTCCCAGCTGATGAATTAGCACCATCGAGTAAACAAATTTTCCTAATCTTTCTGTTCAAGCGCCATCTAC	0.51
GATGATTGTTCTCCCAGCTGATGAATTATTCATATCGAGTAAACAAATTTTCCTAATCTTTCTGTTCAAGCGCCATCTAC	0.511

Sequence	binding signal (RPM ratio (pull-down/input))
GATGATTGTTCTCCCAGCTGATGAATTGACGGGGTCGAGTAAACAAATTTTCCTAATCTTTCTGTTCAAGCGCCATCTAC	0.259
GATGATTGTTCTCCCAGCTGATGAATTTGGAATTTCGAGTAAACAAATTTTCCTAATCTTTCTGTTCAAGCGCCATCTAC	1.36
GATGATTGTTCTCCCAGCTGATGAATTACCGCCGTCGAGTAAACAAATTTTCCTAATCTTTCTGTTCAAGCGCCATCTAC	0.568
GATGATTGTTCTCCCAGCTGATGAATTCCCAGGTTCGAGTAAACAAATTTTCCTAATCTTTCTGTTCAAGCGCCATCTAC	0.203
GATGATTGTTCTCCCAGCTGATGAATTATAGTATTCGAGTAAACAAATTTTCCTAATCTTTCTGTTCAAGCGCCATCTAC	1.43
GATGATTGTTCTCCCAGCTGATGAATTTGGCAGTTCGAGTAAACAAATTTTCCTAATCTTTCTGTTCAAGCGCCATCTAC	0.997
GATGATTGTTCTCCCAGCTGATGAATTCCTAGAGTCGAGTAAACAAATTTTCCTAATCTTTCTGTTCAAGCGCCATCTAC	0.209
GATGATTGTTCTCCCAGCTGATGAATTCAAGAGCTCGAGTAAACAAATTTTCCTAATCTTTCTGTTCAAGCGCCATCTAC	0.186
GATGATTGTTCTCCCAGCTGATGAATTTCGAATCTCGAGTAAACAAATTTTCCTAATCTTTCTGTTCAAGCGCCATCTAC	1.5
GATGATTGTTCTCCCAGCTGATGAATTCGAACAATCGAGTAAACAAATTTTCCTAATCTTTCTGTTCAAGCGCCATCTAC	0.331
GATGATTGTTCTCCCAGCTGATGAATTCGTTGAATCGAGTAAACAAATTTTCCTAATCTTTCTGTTCAAGCGCCATCTAC	0.385
GATGATTGTTCTCCCAGCTGATGAATTTAGGGCATCGAGTAAACAAATTTTCCTAATCTTTCTGTTCAAGCGCCATCTAC	0.955
GATGATTGTTCTCCCAGCTGATGAATTTGGCAATTCGAGTAAACAAATTTTCCTAATCTTTCTGTTCAAGCGCCATCTAC	4
GATGATTGTTCTCCCAGCTGATGAATTTAAAGGATCGAGTAAACAAATTTTCCTAATCTTTCTGTTCAAGCGCCATCTAC	0.18
GATGATTGTTCTCCCAGCTGATGAATTATTAATGTCGAGTAAACAAATTTTCCTAATCTTTCTGTTCAAGCGCCATCTAC	0.506
GATGATTGTTCTCCCAGCTGATGAATTTGCTCTGTCGAGTAAACAAATTTTCCTAATCTTTCTGTTCAAGCGCCATCTAC	0.443
GATGATTGTTCTCCCAGCTGATGAATTCTACATTTCGAGTAAACAAATTTTCCTAATCTTTCTGTTCAAGCGCCATCTAC	0.383
GATGATTGTTCTCCCAGCTGATGAATTCGCGTCCTCGAGTAAACAAATTTTCCTAATCTTTCTGTTCAAGCGCCATCTAC	1.19
GATGATTGTTCTCCCAGCTGATGAATTAGGTCGTTCGAGTAAACAAATTTTCCTAATCTTTCTGTTCAAGCGCCATCTAC	0.522
GATGATTGTTCTCCCAGCTGATGAATTAGATTATTCGAGTAAACAAATTTTCCTAATCTTTCTGTTCAAGCGCCATCTAC	1.87
GATGATTGTTCTCCCAGCTGATGAATTCTTGGTGTCGAGTAAACAAATTTTCCTAATCTTTCTGTTCAAGCGCCATCTAC	0.435

Sequence	binding signal (RPM ratio (pull-down/input))
GATGATTGTTCTCCCAGCTGATGAATTGGTTCTCTCGAGTAAACAAATTTTCCTAATCTTTCTGTTCAAGCGCCATCTAC	0.342
GATGATTGTTCTCCCAGCTGATGAATTAGCAAGCTCGAGTAAACAAATTTTCCTAATCTTTCTGTTCAAGCGCCATCTAC	0.439
GATGATTGTTCTCCCAGCTGATGAATTATTGAAGTCGAGTAAACAAATTTTCCTAATCTTTCTGTTCAAGCGCCATCTAC	0.302
GATGATTGTTCTCCCAGCTGATGAATTGAACTAGTCGAGTAAACAAATTTTCCTAATCTTTCTGTTCAAGCGCCATCTAC	0.25
GATGATTGTTCTCCCAGCTGATGAATTGTGCGTGTCGAGTAAACAAATTTTCCTAATCTTTCTGTTCAAGCGCCATCTAC	6.18
GATGATTGTTCTCCCAGCTGATGAATTAGTAGTCTCGAGTAAACAAATTTTCCTAATCTTTCTGTTCAAGCGCCATCTAC	2.08
GATGATTGTTCTCCCAGCTGATGAATTCGCTCCTTCGAGTAAACAAATTTTCCTAATCTTTCTGTTCAAGCGCCATCTAC	0.305
GATGATTGTTCTCCCAGCTGATGAATTAAGTCTGTCGAGTAAACAAATTTTCCTAATCTTTCTGTTCAAGCGCCATCTAC	0.462
GATGATTGTTCTCCCAGCTGATGAATTGGCGTCATCGAGTAAACAAATTTTCCTAATCTTTCTGTTCAAGCGCCATCTAC	1.18
GATGATTGTTCTCCCAGCTGATGAATTAACGCGCTCGAGTAAACAAATTTTCCTAATCTTTCTGTTCAAGCGCCATCTAC	0.631
GATGATTGTTCTCCCAGCTGATGAATTCCGATAGTCGAGTAAACAAATTTTCCTAATCTTTCTGTTCAAGCGCCATCTAC	0.601
GATGATTGTTCTCCCAGCTGATGAATTTTGCCTATCGAGTAAACAAATTTTCCTAATCTTTCTGTTCAAGCGCCATCTAC	2.85
GATGATTGTTCTCCCAGCTGATGAATTCAACCCGTCGAGTAAACAAATTTTCCTAATCTTTCTGTTCAAGCGCCATCTAC	0.238
GATGATTGTTCTCCCAGCTGATGAATTATCAACGTCGAGTAAACAAATTTTCCTAATCTTTCTGTTCAAGCGCCATCTAC	0.386
GATGATTGTTCTCCCAGCTGATGAATTCTTAGGCTCGAGTAAACAAATTTTCCTAATCTTTCTGTTCAAGCGCCATCTAC	0.259
GATGATTGTTCTCCCAGCTGATGAATTGCAAATTTCGAGTAAACAAATTTTCCTAATCTTTCTGTTCAAGCGCCATCTAC	0.804
GATGATTGTTCTCCCAGCTGATGAATTTTTGTCTTCGAGTAAACAAATTTTCCTAATCTTTCTGTTCAAGCGCCATCTAC	0.505
GATGATTGTTCTCCCAGCTGATGAATTTGGGTCTTCGAGTAAACAAATTTTCCTAATCTTTCTGTTCAAGCGCCATCTAC	0.715
GATGATTGTTCTCCCAGCTGATGAATTTAATGTGTCGAGTAAACAAATTTTCCTAATCTTTCTGTTCAAGCGCCATCTAC	4.02
GATGATTGTTCTCCCAGCTGATGAATTATGCTGGTCGAGTAAACAAATTTTCCTAATCTTTCTGTTCAAGCGCCATCTAC	1.46
GATGATTGTTCTCCCAGCTGATGAATTTTATGTCTCGAGTAAACAAATTTTCCTAATCTTTCTGTTCAAGCGCCATCTAC	1.12
